The values that follow come from PubChem BioAssay AID463173 (ICCB-Longwood Screening Facility, Harvard Medical School, 2010).

In all, about 52,000 compounds went through this assay and about 1,700 (3.3%) were called active. Rule as the data show it: active = survival mostly below about 52% (no sharp cut-off); inactive = mostly above about 56%. The list shows a part of the results.

For this assay, the system named is Wild type. The experiment in a line: S. aureus survival, RN4220 and DeltatarO strains – OD600, teichoic acid synthesis inhibitors, primary screen (AID 463173). Conditions: S. aureus RN4220 wild type/DeltatarO growth, OD600, 18 h, stronger effect = lower value, screened at 18.75 µg/mL (by protocol).
In the case of `O=C1c2ccccc2NC(c2ccncc2)N1c1ccccn1` (configuration not stated), the survival is inactive: 103%.

Take `CCc1nc2nc(C)cc(Nc3cc(C)ccc3C)n2n1`: the survival is inactive: 73%.

On to `Cc1ccc(Nc2ncnc3c2nc2n3CCCC2)cc1F`, for which the survival was inactive: 67%.

Take `Clc1ccc(CSc2nncn3c2cc2occc23)cc1`: the survival is inactive: 66%.

Regarding `COc1ccccc1CNC(=O)C1CCN(S(=O)(=O)Cc2ccccc2)CC1`, the survival was inactive: 100%.

In the case of `Cc1nc2nc[nH]n2c(=O)c1NS(=O)(=O)c1ccc(Br)cc1`, the survival was inactive: 84%.

Turning to `CC1=C(c2ccc(Cl)cc2)S(=O)(=O)N=C1N1CCN(c2cc(C)ccc2C)CC1`, the survival was inactive: 116%.

`Cn1c(O)c(N=NC(=S)Nc2ccccc2)c2ccccc21`: the survival is inactive: 121%.

Regarding `CCCN1CCCc2cc(CN(CCCN3CCOCC3)C(=O)Nc3ccc(Cl)c(Cl)c3)ccc21`, the survival was inactive: 87%.

For the compound `COc1cccc(Cn2c(=O)n(Cc3ccccc3)c(=O)c3c2c2cc(OC)ccc2n3C)c1`, the survival is inactive: 57%.

With `Cc1cc(C)cc(-n2c(SCC(=O)Nc3ccc4c(c3)OCO4)nc3c([nH]c4ccccc43)c2=O)c1`, the survival is inactive: 55%.

With `COc1ccc(CNC(=O)C(=O)NCC(c2cccnc2)N2CCN(c3ccccc3)CC2)cc1` (configuration not stated), the survival is inactive: 83%.

In the case of `Cc1cccc(N(C)S(=O)(=O)c2ccc3c(c2)NC(=O)CC(=O)N3)c1`, the survival was inactive: 71%.

Turning to `O=C(COC(=O)c1ccccc1)Nc1ccc2c(c1)OCO2`, the survival was inactive: 115%.

For the compound `Cc1cc2[nH]c(=O)c(=O)[nH]c2cc1S(=O)(=O)N1CCN(c2ccccc2F)CC1`, the survival was inactive: 77%.

`COc1ccc(C2C3=C(CCCC3=O)NC3=C2C(=O)c2ccccc23)c(OC)c1OC` (configuration not stated): the survival was inactive: 113%.

Turning to `COc1ccc2sc(N(Cc3cccnc3)C(=O)CCc3ccccc3)nc2c1`, the survival was inactive: 129%.

As for `COc1cc(C2CC(=O)c3c([nH]c(C(=O)OC4CCCC4)c3C)C2)cc(OC)c1OC` (configuration not stated), the survival was inactive: 81%.

For the compound `COCCn1nnnc1CN1CCC(Cc2ccccc2)CC1`, the survival is inactive: 101%.

For the compound `CCN(C(=O)Cn1nc(Cc2ccncc2)c2ccccc2c1=O)c1ccc(OC)cc1`, the survival is inactive: 74%.

As for `COC(=O)c1c(NC(=O)c2ccc(C(C)(C)C)cc2)sc2c1CCC(C)C2` (configuration not stated), the survival is inactive: 71%.

On to `CCOc1ccc(CCNC(=O)c2ccc(CSCc3ccccc3C)o2)cc1OCC`, for which the survival is inactive: 118%.

Consider `O=C(CSc1nc(=O)n(Cc2ccncc2)c2c1CCC2)Nc1cccc(F)c1`, for which the survival was inactive: 125%.

For the compound `Clc1ccc(-c2cn3cc(Cc4ccccc4)sc3n2)cc1`, the survival was inactive: 81%.

As for `CCc1ccc(NC(=O)CNC(=O)Cn2c(C)cc3ccccc3c2=O)cc1`, the survival is inactive: 119%.

`CCN(C(=O)C(NS(=O)(=O)c1ccc(Br)s1)c1ccccc1)c1ccc(C)c(C)c1` (configuration not stated): the survival was inactive: 68%.

On to `CC(=O)ONC(=Nc1ccccc1C)c1nonc1N`, for which the survival is inactive: 92%.

As for `Cc1cc(=O)n2nc(N)sc2n1`, the survival is inactive: 106%.

Regarding `CC1(C)CC(=O)c2cc(-c3nc(-c4ccc(F)cc4)cs3)c(=O)[nH]c2C1`, the survival is inactive: 91%.

As for `CC(C)c1ccc(-c2noc(C3CCCN(C(=O)Cc4cccs4)C3)n2)cc1` (configuration not stated), the survival was inactive: 120%.

Regarding `O=C(Cc1ccc(Cl)cc1)Nc1ccc2oc(-c3ccc(F)cc3)nc2c1`, the survival was inactive: 87%.

For the compound `Cc1cc(C)cc(OCC(=O)N2CCC(c3nc4ccccc4o3)CC2)c1`, the survival is inactive: 75%.

Consider `COC(=O)c1ccccc1NC(=O)C(Cc1ccccc1)N1Cc2ccccc2C1=O` (configuration not stated), for which the survival is inactive: 53%.

Take `COc1ccc(C)cc1NC(=O)Cn1cc(S(=O)(=O)N2CCC(C)CC2)c2ccccc2c1=O`: the survival was inactive: 83%.

Consider `CCC(=O)N1c2ccccc2CC1C(=O)NCCN1CCN(c2cc(Cl)ccc2C)CC1` (configuration not stated), for which the survival is inactive: 64%.

Take `CCOc1ccc(NC(=O)c2c(NCc3cc(OC)c(OC)cc3OC)sc3c2CCCC3)cc1`: the survival is inactive: 83%.

In the case of `CC(=O)c1cccc(NC(=O)c2ccc3c(c2)N(Cc2ccc(C)cc2)CCS3)c1`, the survival was inactive: 81%.

`COc1ccc(CCNC(=O)Cn2c(=O)nc(-c3ccccc3)c3cc(Cl)ccc32)cc1OC`: the survival is inactive: 70%.

In the case of `COc1ccc(NC(=O)Cn2c(-c3ccc(F)cc3)cc(C(C)=O)c2C)c(OC)c1`, the survival was inactive: 128%.

Turning to `O=S(=O)(c1ccccc1)n1nc(-c2ccc(Cl)cc2)nc1NCc1ccccc1`, the survival was inactive: 56%.

Turning to `CC(=O)Nc1ccc(S(=O)(=O)NCC2CCC(C(=O)NCCc3ccc(C)cc3)CC2)cc1` (configuration not stated), the survival is inactive: 117%.

For `COCCCNc1nc2c(c(=O)[nH]c(=O)n2C)n1CC(O)COc1ccc(Cl)cc1` (configuration not stated), the survival was inactive: 75%.

Regarding `COc1cccc(CC(=O)Nc2c(C(=O)N3CCN(c4ccccc4F)CC3)oc3ccccc23)c1`, the survival is inactive: 97%.

As to `CCCC1=Nc2cc(C(=O)NC3CCCCC3)ccc2Sc2ccc(C)cc21`, the survival is inactive: 110%.

Take `Cc1cc(C)c2c(=O)c3c(oc2c1)C(=O)N(CCCOC(C)C)C3c1ccccc1F` (configuration not stated): the survival is inactive: 84%.

In the case of `N#C/C(=C\c1ccc(F)cc1)c1nc(-c2ccc(-c3ccccc3)cc2)cs1`, the survival is inactive: 74%.

Turning to `CC1=C(C(=O)Nc2ccccc2C)C(c2ccccn2)n2ncnc2N1` (configuration not stated), the survival is inactive: 75%.

On to `CCC(=O)C1=C(c2ccc(C)cc2)N(C(=O)CC)n2c(nnc2C2CCCCC2)S1`, for which the survival was inactive: 76%.

Consider `Cc1cccc(C)c1NC(=O)CS(=O)(=O)c1nc(-c2ccc(Cl)cc2)cn1-c1ccccc1`, for which the survival is inactive: 84%.

As to `CC(=O)N1CCc2cc(S(=O)(=O)NC(CC(C)C)C(=O)Nc3cc(C)cc(C)c3)ccc21` (configuration not stated), the survival is inactive: 87%.

Consider `CCOC(=O)c1nc(NCc2ccc(Cl)cc2)c2c(C)noc2n1`, for which the survival was inactive: 76%.

As to `CCOc1ccc(Cn2c(=O)sc3ccccc32)cc1`, the survival is inactive: 72%.

`Cc1cccn2c(=O)c3cc(C#N)c(=O)n(-c4nnc(SCc5ccc(Cl)cc5)s4)c3nc12`: the survival is inactive: 83%.

On to `Cc1c(Cl)cccc1NC(=O)CCOc1ccccc1`, for which the survival is inactive: 145%.

With `Cc1ccc(NC(=O)CN2C(=O)COc3ccc(S(=O)(=O)NC4CCCC4)cc32)cc1N(C)C`, the survival was inactive: 77%.

For the compound `Cc1ccc(C)c(Cn2c(=O)c3c(nc4n3CCN4c3ccccc3)n(C)c2=O)c1`, the survival was inactive: 85%.

As to `CC1=C(C(=O)Nc2ccc(Cl)cc2)C(c2ccccc2)n2ncc(C(=O)Nc3ccccc3)c2N1` (configuration not stated), the survival was inactive: 81%.
